Results: the supplement of paper PMC11876631
Numbering of substitutions follows the chain as printed. Names may count otherwise. ± gives the standard deviation of the averaged measurements. Laboratory Escherichia coli strains with one amino-acid change in an essential protein, pooled on minimal glucose agar with carbenicillin or gentamicin at twice the control MIC (plus kanamycin and chloramphenicol for the plasmids), 48 h. Fold change of barcode share against drug-free plates; higher = less susceptible. Active = above 20 in both replicates (the paper's putatively resistant). '<' = one read or none on drug, '>' = one read or none on a drug-free plate. Shares are relative, so most strains fall below 1 when a few take over. Listed are strains with at least 15 reads on both drug-free plates, and hits; most hits rest on fewer reference reads. Replicate rank correlation about 0.5. Edits are read from barcodes.

B1: asnS V273A (protein)
chain: MSVVPVADVLQGRVAVDSEVTVRGWVRTRRDSKAGISFLAVYDGSCFDPVQAVINNSLPNYNEDVLRLTTGCSVIVTGKVVASPGQGQQFEIQASKVEVAGWVEDPDTYPMAAKRHSIEYLREVAHLRPRTNLIGAVARVRHTLAQALHRFFNEQGFFWVSTPLITASDTEGAGEMFRVSTLDLENLPRNDQGKVDFDKDFFGKESFLTVSGQLNGETYACALSKIYTFGPTFRAENSNTSRHLAEFWMLEPEVAFANLNDIAGLAEAMLKYAFKAVLEERADDMKFFAERVDKDAVSRLERFIEADFAQVDYTDAVTILENCGRKFENPVYWGVDLSSEHERYLAEEHFKAPVVVKNYPKDIKAFYMRLNEDGKTVAAMDVLAPGIGEIIGGSQREERLDVLDERMLEMGLNKEDYWWYRDLRRYGTVPHSGFGLGFERLIAYVTGVQNVRDVIPFPRTPRNASF
B2: asnS V273Q (protein)
chain: B1 chain with A273Q
B3: asnS F274A (protein)
chain: B1 chain with A273V, F274A
B4: asnS V273W (protein)
chain: B1 chain with A273W
B5: asnS F274W (protein)
chain: B1 chain with A273V, F274W
B6: nadA V234A (protein)
chain: MSVMFDPDTAIYPFPPKPTPLSIDEKAYYREKIKRLLKERNAVMVAHYYTDPEIQQLAEETGGCISDSLEMARFGAKHPASTLLVAGVRFMGETAKILSPEKTILMPTLQAECSLDLGCPVEEFNAFCDAHPDRTVVVYANTSAAVKARADWVVTSSIAVELIDHLDSLGEKIIWAPDKHLGRYVQKQTGGDILCWQGACIVHDEFKTQALTRLQEEYPDAAILVHPESPQAIADMADAVGSTSQLIAAAKTLPHQRLIVATDRGIFYKMQQAVPDKELLEAPTAGEGATCRSCAHCPWMAMNGLQAIAEALEQEGSNHEVHVDERLRERALVPLNRMLDFAATLRG
B7: nadA I259A (protein)
chain: B6 chain with A234V, I259A
B8: nadA V234D (protein)
chain: B6 chain with A234D
B9: nadA V234Q (protein)
chain: B6 chain with A234Q
B10: nadA V260A (protein)
chain: B6 chain with A234V, V260A
B11: nadA M270A (protein)
chain: B6 chain with A234V, M270A
B12: nadD I30A (protein)
chain: MKSLQALFGGTFDPVHYGHLKPVETLANLAGLTRVTIIPNNVPPHRPQPEANSVQRKHMLELAIADKPLFTLDERELKRNAPSYTAQTLKEWRQEQGPDVPLAFIIGQDSLLTFPTWYEYETILDNAHLIVCRRPGYPLEMAQPQYQQWLEDHLTHNPEDLHLQPAGKIYLAETPWFNISATIIRERLQNGESCEDLLPEPVLTYINQQGLYR

These proteins were tested against Escherichia coli (laboratory strain) (assay: barcode share on antibiotic plates over drug-free plates; higher = less susceptible). Settings: antibiotic: carbenicillin; 2× MIC (3.1 µg/mL).
Description: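 A pool of E. coli strains, each edited to carry one amino-acid change in an essential protein, was grown for 48 h on minimal glucose agar with or without antibiotic; strain barcodes were sequenced; mean of two replicates.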

| Protein | fold change of barcode share |
| --- | --- |
| B1 | 0.326 ± 0.031 |
| B2 | 0.262 ± 0.098 |
| B3 | 0.2 ± 0.037 |
| B4 | 0.354 ± 0.15 |
| B5 | 0.294 ± 0.035 |
| B6 | 1.28 ± 0.94 |
| B7 | 0.951 ± 0.34 |
| B8 | 1.38 ± 0.089 |
| B9 | 1.01 ± 0.72 |
| B10 | 0.635 ± 0.068 |
| B11 | 0.584 ± 0.2 |
| B12 | 0.405 ± 0.052 |

Same assay, conditions: antibiotic: gentamicin; 2× MIC (MIC 0.45 µg/mL)

| Protein | fold change of barcode share |
| --- | --- |
| B1 | < 0.00166 |
| B2 | 0.0102 ± 0.0006 |
| B3 | 0.0168 ± 0.02 |
| B4 | < 0.00441 |
| B5 | < 0.00258 |
| B6 | 0.052 ± 0.063 |
| B7 | 0.182 ± 0.23 |
| B9 | 0.0268 ± 0.021 |
| B10 | 0.0606 ± 0.07 |
| B11 | 0.108 ± 0.081 |
| B12 | < 0.00799 |
